Data taken from PMC6919601, “Identification of Plasmodium dipeptidyl aminopeptidase allosteric inhibitors by high throughput screening” (PLoS ONE, 2019).
About 230 (0.21%) of roughly 110,000 compounds showed an effect of 50% or more. The list shows a part of the results.

target: DPAP1 (Plasmodium falciparum, UniProt Q8IIJ9); test: primary screen, percent inhibition; read by cleavage of a fluorogenic dipeptide substrate; higher = more effect of the substance; set-up: species or system P. falciparum D10 trophozoite lysates; single well
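Further: 30 min substrate incubation versus DMSO and 10 µM JCP410 controls.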

Chain of DPAP1 (Q8IIJ9 whole entry, looked up): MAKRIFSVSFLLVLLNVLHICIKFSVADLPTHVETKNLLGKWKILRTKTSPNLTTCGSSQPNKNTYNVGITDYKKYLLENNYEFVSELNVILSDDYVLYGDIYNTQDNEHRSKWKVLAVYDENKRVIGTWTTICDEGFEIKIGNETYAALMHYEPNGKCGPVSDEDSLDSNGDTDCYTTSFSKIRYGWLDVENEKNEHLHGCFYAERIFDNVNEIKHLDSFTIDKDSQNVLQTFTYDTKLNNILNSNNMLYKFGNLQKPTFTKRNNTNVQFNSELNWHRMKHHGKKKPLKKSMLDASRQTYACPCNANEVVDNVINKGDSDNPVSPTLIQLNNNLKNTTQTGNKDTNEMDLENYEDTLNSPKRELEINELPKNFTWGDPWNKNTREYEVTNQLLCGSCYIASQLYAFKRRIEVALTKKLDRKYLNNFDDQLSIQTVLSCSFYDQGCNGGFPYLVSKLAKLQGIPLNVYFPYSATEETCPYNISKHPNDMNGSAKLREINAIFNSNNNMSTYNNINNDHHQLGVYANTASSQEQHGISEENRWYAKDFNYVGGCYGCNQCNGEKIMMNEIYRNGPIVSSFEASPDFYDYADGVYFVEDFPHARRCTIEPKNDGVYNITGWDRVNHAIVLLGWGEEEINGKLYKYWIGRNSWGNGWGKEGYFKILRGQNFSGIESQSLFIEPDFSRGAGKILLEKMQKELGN

Point of comparison: COc1ccc(C(=O)N2CCCCC2)cc1S(=O)(=O)NC1CCCC1, “% Inhibition @ 10 uM” value -3.34%. Against it:
- COCCCNC(=O)/C(C#N)=C/c1c(Oc2ccccc2Cl)nc2c(C)cccn2c1=O — higher, 3.63%
- COc1cc(-c2cc(N)n(S(=O)(=O)c3ccccc3)n2)cc(OC)c1OC — higher, 2.74%
- Cc1nc2ccccn2c1C(=O)Nc1cccc(Cl)c1 — higher, 0.0792%
- C=CCn1cnc2c(oc3ccccc32)c1=O — higher, -1.19%
- COc1cc2c(cc1OC)C(c1cccc(Cl)c1)NCC2 (stereo not drawn) — lower, -7.46%
- COc1ccc(CN2CC=C(c3ccc(F)cc3)CC2)cc1 — higher, 1.57%
- Cn1c(=O)c2c(ncn2CC(=O)Nc2nnc(C3CCCCC3)s2)n(C)c1=O — higher, 1.91%
- Cn1c(S(=O)(=O)CC(N)=O)nc2ccccc21 — lower, -4.42%
- CCCn1c(=N)n(CC(O)COc2ccccc2)c2ccccc21 (stereo not drawn) — higher, 3.69%
- O=C(Cn1c(=O)c2cccn2c2cccnc21)N1CCC2(CC1)OCCO2 — higher, 1.26%
- Cc1cc(NC(=O)CN2CCCCCC2)c2ccccc2n1 — lower, -5.78%
- COc1ccc(OCCNS(=O)(=O)c2ccc3nc(O)sc3c2)cc1 — higher, 4.61%
- COCCNC(=O)c1c(NC(=O)Cc2coc3ccc(C(C)C)cc23)sc2c1CCCC2 — lower, -4.19%
- CC(=O)c1cccc(NC(=O)c2sc(Cl)nc2-c2ccccc2)c1 — higher, 1.83%
- COc1ccc(CCNCc2cccc(C)c2)cc1OC — higher, -1.24%
- COc1cccc(NC(=O)C(N)=O)c1 — higher, 6.52%
- COCCNC(=O)C1CCN(c2nn3cc(-c4ccc(C)cc4)nc3s2)CC1 — higher, 2.72%
- Oc1c2c(nc3nncn13)CCN(Cc1ccccc1)C2 — lower, -3.49%
- O=C(Nc1ccccc1C(F)(F)F)c1ccc(F)cc1 — lower, -6.08%
- COc1ccc(S(=O)(=O)NC(C)c2ccc(-n3ccnc3)cc2)c2ccccc12 (stereo not drawn) — higher, 0.895%
- COc1ccc(C)cc1NC(=O)CSCC(=O)Nc1ccccc1 — lower, -3.49%
- Cc1ccc(-n2nc3c(c2NC(=O)CCC2CCCC2)CS(=O)(=O)C3)cc1 — higher, -0.349%
- Cc1cc(-c2ccccc2C(=O)NCc2ccccc2)on1 — lower, -3.56%
- C#CCOC(=O)c1ccccc1C(=O)O — higher, 1.76%
- COc1cccc(C(=O)N/C(=C\c2cccnc2)C(=O)N2CC3CC(C2)c2cccc(=O)n2C3)c1 (stereo not drawn) — higher, 1.76%
- COC(=O)c1ccc(C(=O)N2CCC(c3nc(O)c4nnn(Cc5ccc(F)cc5)c4n3)CC2)cc1 — higher, 1.85%
- COc1ccc(C(CC(=O)Nc2ncccc2C)N2Cc3ccccc3C2=O)cc1 (stereo not drawn) — lower, -3.84%
- CCCn1c2c(c(O)c(C(=O)Nc3nc4ccccc4s3)c1=O)CCCC2 — higher, -0.458%
- CCOC(=O)c1c(NC(=O)CCCOc2ccc(Cl)cc2Cl)sc(C)c1C — higher, 4.34%
- COc1ccc(-c2cc(-c3ccccc3)c3cc(Cl)ccc3n2)cc1 — higher, 1.72%
- O=C(c1ccc(C(=O)N2CCOCC2)s1)N1CCOCC1 — lower, -3.95%
- CC(NC(=O)Cc1ccccc1)c1cc2c(cc1Cl)OCCO2 (stereo not drawn) — higher, -1.04%
- CCCN(CC1CC1)C1CCN(C)CC1 — higher, -1.15%
- Cc1ccc(-c2cc(C(F)F)n3ncc(C(=O)N4CCN(c5ncccn5)CC4)c3n2)cc1 — higher, 4.08%
- Cc1nnc(NC(=O)CSc2nc3c(c(=O)n2CCc2ccccc2)SCC3)s1 — lower, -6.47%
- COc1ccc(CC(=O)NCc2ccc(C)cc2)cc1 — lower, -5.16%
- C#CCOc1ccc(C=C2C(=O)OC(c3ccccc3)OC2=O)cc1 (stereo not drawn) — higher, 1.52%
- O=c1cc2c3c(cc(O)cc3o1)OC2 — higher, -1.46%
- Cc1nc2ncnn2c(C)c1CCC(=O)NCc1ccco1 — higher, -0.465%
- O=C(c1ccccc1)c1ccc2c(c1)NC(c1ccco1)C1=C(O)CCCC1=N2 (stereo not drawn) — higher, -0.68%
- CN(Cc1ccccc1)C(=O)c1cc(-c2ccc(F)cc2)on1 — lower, -4.79%
- COCCCN1C(=O)c2ccc3c(=O)n4c5ccc(Cl)cc5nc4c4ccc(c2c34)C1=O — higher, 4.21%
- O=C(CSc1nc2nccnc2c(=O)n1Cc1ccc(Cl)cc1)NCCc1ccccc1 — lower, -5.99%
- CN(CCc1ccccn1)Cc1c(Cl)cccc1Cl — higher, 0.472%
- CC(C)n1c(S)nc2c1c(=O)n(C)c(=O)n2C — higher, 1.37%
- COc1ccc(CCC(=O)Nc2ccc(C(C)=O)cc2)cc1 — higher, 3.49%
- CCc1ccc(C2=NN(CCC(=O)NCc3ccc4c(c3)OCO4)C(=O)CC2)cc1 — higher, -0.971%
- CCOC(=O)c1c(-c2ccccc2)nnn1-c1nc(OCC)nc(N2CCCCC2)n1 — higher, 1.03%
- CCOc1ccc(NC(=O)Nc2ccccc2)cc1 — higher, 1.48%
- CC1CCN(C(=O)c2cccc(S(=O)(=O)N3CCCCC3)c2)CC1 — higher, -1.65%
- CCOc1ccc(-c2cc(C(=O)N3CCOCC3)c3ccccc3n2)cc1 — higher, -2.26%
- CCC1CCCCN1CCCNC(=O)C1CCCN(S(=O)(=O)N2CC(C)CC(C)C2)C1 (stereo not drawn) — lower, -6.75%
- COc1ccc(OCC(O)Cn2c(N3CCCCCC3)nc3c2c(=O)[nH]c(=O)n3C)cc1 (stereo not drawn) — higher, -1.96%
- O=C(CCCN1C(=O)CSc2ncccc21)N1CCN(Cc2ccccc2)CC1 — higher, -2.37%
- Cn1c(=O)c2c(nc(Oc3ccc(-n4cnnn4)cc3)n2C)n(C)c1=O — higher, 9.19%
- CC1CCCCN1S(=O)(=O)c1ccc(C(=O)Nc2ccc(Cl)c(Cl)c2)cc1 (stereo not drawn) — higher, 2.65%
- Cc1ccc(/C=c2\sc3nc(=O)c(Cc4ccccc4)nn3c2=O)o1 — higher, 0.0069%
- Cc1ccc(S(=O)(=O)N2CCCCCC2)cc1C(=O)Nc1ccc(Br)cc1 — lower, -8.18%
- COc1cccc(CNS(=O)(=O)c2ccc(CN3C(=O)c4cccnc4C3=O)cc2)c1 — higher, 5.25%
- Cc1cccc(C2C(C#N)=C(N)Oc3c2c(=O)oc2ccccc32)c1 (stereo not drawn) — higher, 3.1%
- CCN1CCC(NC23CC4CC(CC(C4)C2)C3)CC1 — higher, 4.74%
- O=C(Cc1ccccc1)N1CCN(c2ccc([N+](=O)[O-])cc2)CC1 — higher, 2.33%
- Cc1ccc(Cn2c(=O)c3ccccc3n3c(-c4ccccc4O)nnc23)cc1 — higher, -1.72%
- CC(C)N(Cc1ccccc1)C(=O)c1ccc([N+](=O)[O-])cc1 — higher, 1.54%
- CC(CCCC(C)(C)O)NC(C)CCc1ccccc1 (stereo not drawn) — higher, -1.82%
- CCOc1cc(C2c3c(oc4ccccc4c3=O)C(=O)N2c2nnc(C(C)C)s2)ccc1O (stereo not drawn) — higher, -2.92%
- COC(=O)C1=C(C)N(C)C(=O)/C1=C\c1ccc(Cl)cc1Cl — higher, -1.6%
- Cn1c(-c2cc3ccc(O)cc3oc2=O)nc2ccccc21 — lower, -4.75%
- O=c1/c(=C/C=C/c2ccccc2)sc2nc(-c3cccc(Cl)c3)nn12 — higher, -2.98%
- CN1C(=O)c2ccccc2C(C(=O)Nc2cccnc2)C1c1cccs1 (stereo not drawn) — higher, 1.64%
- CCc1cc(=O)oc2c(C)c3c(cc12)CN(Cc1ccccc1OC)CO3 — lower, -8.25%
- COc1cc2c(cc1OC)C(COc1ccc(F)cc1)N(C(=O)C1CC1)CC2 (stereo not drawn) — higher, 2.88%
- CCOc1ccc(C(=O)CCNC(CC(=O)O)C(=O)O)cc1 (stereo not drawn) — higher, 42.3%
- CCCCCC(=O)NC(C)C(=O)O (stereo not drawn) — lower, -5.9%
- COCCCNc1ncnc2onc(-c3ccc(Cl)cc3)c12 — higher, 1.15%
- CC1(C)CC2=Nc3ccccc3NC(c3c(Cl)cccc3Cl)C2=C(O)C1 (stereo not drawn) — higher, -2.51%
- CCCOc1cccc(NC(=O)c2cc(CC(C)C)oc2C)c1 — higher, -1.95%
- CC1=CC2=NC(=O)/C(=C\c3ccc(OCCCOc4ccccc4)c(Cl)c3)C(=N)N2O1 — higher, 0.317%
- CC(=O)c1cccc(NC(=O)c2cnn3c(C(F)(F)F)cc(-c4ccccc4)nc23)c1 — higher, 3.56%
- Cc1cccc(C2N(c3ccccn3)C(=O)C3CCCN32)c1 (stereo not drawn) — higher, -0.499%
- CN(c1ccc(C(=O)NCCSCc2ccco2)cc1)S(C)(=O)=O — higher, -2.76%
- CCN(CC)C1CC(=O)N(c2ccc(N3C(=O)CC(N(CC)CC)C3=O)cc2)C1=O (stereo not drawn) — lower, -7.14%
- CCCCCc1ccc(S(N)(=O)=O)cc1 — higher, 1.17%
- CC(C)COc1ccc(C2(CNC(=O)C(c3ccccc3)c3ccccc3)CCCC2)cc1 — higher, 1.88%
- Cc1ccc(OCC(=O)Nc2ccc(C)c(F)c2)cc1 — higher, 0.727%
- O=C(c1ccco1)N1CCN(C(=O)c2cccc3c2C(=O)N(C2CCCCC2)C3)CC1 — lower, -4.14%
- COc1ccc(-c2csc(-c3cccnc3)n2)cc1 — lower, -7.28%
- N#CC1=C(N)C(C#N)(C#N)[C@@H](c2ccc([N+](=O)[O-])cc2)[C@@H]2CCCC=C12 — higher, 17%
- O=C(O)c1nc(N2CCOCC2)nc(N2CCOCC2)n1 — higher, -2.75%
- CN1C(=O)/C(=C\c2c[nH]c3ccccc23)S/C1=N\c1ccccc1 — higher, -1.84%
- CN1C(=O)C(=Cc2cn(CC(=O)NCc3ccco3)c3ccccc23)C(=O)N(C)C1=O — lower, -4.93%
- Cc1nn2c(=O)/c(=C/c3ccccc3Cl)sc2nc1=O — higher, -1.75%
- COc1ccc(C2C3=C(O)CCCC3=Nc3nc(C(F)(F)F)nn32)c(OC)c1OC (stereo not drawn) — higher, 1.73%
- N#CCNC(=O)C1(NC(=O)c2ccc(-c3csc(CN4CCOCC4)n3)cc2)CCCCC1 — higher, 0.173%
- O=C1CCCN2N=C(SCC(=O)N3N=C(c4cccs4)CC3c3ccc(F)cc3)SC2=N1 (stereo not drawn) — higher, 11.6%
- CCN(CC)C(=O)Cn1c(=O)n(CCCC(=O)NCc2ccc(C)cc2)c(=O)c2sccc21 — lower, -4.43%
- COC(=O)C1=C(C)OC(N)=C(C#N)C1c1ccccc1F (stereo not drawn) — higher, 5.85%
- CCOc1ccc(CCNC(=O)c2cc3c(C)nccc3nc2O)cc1OCC — lower, -4.53%
